# Data: the supplement of paper PMC12632987
# Whole data set: some 4,500 sequences, median “median log2 fold change of GCK-ALFA target abundance (FLAG IP / Myc IP barcode read proportion)” near 0.078, cut for the lowest 2% near -0.6. Some of the results follow.
# B1: GBRAP_11_2760 (protein)
# chain: MKEKYLELAELAEEAAELVDKLLEEGVDNEELREELREKLKELKEKVEEIGDEALIKEVEIAEELFKEMEEDPENAEKYAKELRAALRVLAGQFLLEAEE
# B2: GBRAP_153_3947 (protein)
# chain: EEERKEKLEKAKKLIEKIKKSKDPTKYIKELAKLLSELNLEDKLEVAKEFNKLSEETVYKIFKTLATEEGFSVEELLELTTELNEEQQAAALKAIVDSQK
# B3: GBRAP_35_5540 (protein)
# chain: DADTTIAEMLVNTMEDLVLALPDVDDETKITLTNHLIRLAEDLVELKPKDVELIKRAIEVLERAIEIIEESDLPEETREELIERLEELREKLEEILKENE
# B4: GBRAP_117_2594 (protein)
# chain: SATLEEVRKRVEELVERIRKALEEMKTLSEEERKRLREELLEEATKEVKEMLKLTDAETVEEFFAEALADLSPEERVEAYIIFEEALADAEDELKEEEEA
# B5: GBRAP_16_4993 (protein)
# chain: DELLNKVEGILEFVEDVADAFKDIDKETAKLAKEAAEKLKKAAKLIKEGGPKEEVLKELEEAAKILKEAAKRYAKKDPEAAAIFETLLREVERAIKLAKE
# B6: GBRAP_52_6088 (protein)
# chain: SAAKLEKYADELLAAAVAGDLEKATALVKKLIEELTDEEVLEAFARLAKKIAALPPEERERALDVALEALSRAADETGKEELMDLAMARLAAEAHAAELA
# B7: GBRAP_137_3611 (protein)
# chain: KKITITFSEEDGVAFAEIEADESVDHEKLLELVEKVAEETGAKVVIAYSDENKELIIYLVGDRETIVKAVRKLIKRLKEELGAEVELRSDGAEDLVEAVK
# B8: GBRAP_48_5828 (protein)
# chain: MVLDLEKLRELVEETVEEMKELYEEAKEEGLSREDILKMVKAELGDLALELEEAGYTKAADYLLEKENRDKLAKKLVELLEEGKVEEAEKYLFEELLKAE
# Target: GABARAP, O95166
# Sequence (O95166 whole entry, the tested form may be a part): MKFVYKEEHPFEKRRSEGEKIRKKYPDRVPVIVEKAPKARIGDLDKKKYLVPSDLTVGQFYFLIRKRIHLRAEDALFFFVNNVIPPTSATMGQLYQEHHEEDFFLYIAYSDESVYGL
# Assay: median log2 fold change of GCK-ALFA target abundance (FLAG IP / Myc IP barcode read proportion) (log2 ratio); each designed protein is fused to an ALFA-tag nanobody in HEK293 cells to bring the named protein to FLAG-tagged glucokinase (GCK); Myc marks an untargeted standard; higher = target protein stabilised (more abundant)
# Settings: target protein: 3xFLAG-MCP-GCK-ALFA reporter; HEK293 landing pad (RPLP)
# Method in brief: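 The readout is target abundance, the per-binder median log2 ratio of FLAG to Myc barcode read proportions. It came from HEK293 landing-pad cells carrying a recombined ALFA-nanobody-fused binder library, induced with 2 μg mL^−1 doxycycline and transfected with a plasmid for a FLAG-tagged target and a Myc-tagged standard. After 48 h, lysates were immunoprecipitated with anti-FLAG and anti-Myc, and circular RNA barcodes were reverse transcribed, amplified and sequenced. Each barcode needed a proportion of at least 10^−7 in both replicates and each binder at least 3 barcodes per replicate, a pseudocount of 10^−6 was added, and the replicates were pooled.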
row,Binder,median log2 fold change
1,B1,0.142
2,B2,0.0929
3,B3,-0.0575
4,B4,0.152
5,B5,-0.0973
6,B6,0.221
7,B7,-0.109
8,B8,0.0841
